# Experimental data taken from the supplement of paper PMC7826260.
# Some of the results follow. Cleavage of a single-stranded DNA pool by Rep nickase domains was read by sequencing at 3 µM enzyme and 37 °C for 1 h; the strands have 90 letters, of which the middle is given. The score is log2 (uncut reads / reads without enzyme); the lower, the more was cut; hits are not called. Counts are relative to all reads; values above 0 arise when much of the pool is cut.
# Assays:
# Assay in all cases: uncleaved DNA left, log2 of reads against the no-enzyme library (log2 ratio); higher = less cleavage (more negative = more Rep cleavage of the k-mer); sequences stand for … in CTCGTCCG…ACCGGAGA
# [1] = system: T1, Rep nickase domain of Muscovy duck circovirus
# T1 sequence (Rep 1-111, printed without the tag): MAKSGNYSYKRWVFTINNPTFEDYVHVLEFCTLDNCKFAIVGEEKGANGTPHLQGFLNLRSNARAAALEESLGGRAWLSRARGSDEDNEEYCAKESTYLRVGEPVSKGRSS
# Experimental: (§1)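 A pool of 90-nt single-stranded DNAs with seven random bases just before the constant AC of the nick site (name = the seven bases) was cut by 3 µM recombinant His6-SUMO-tagged Rep nickase domain (300 nM DNA, 50 mM HEPES pH 8.0, 50 mM NaCl, 1 mM MnCl2, 1 h, 37 °C, three replicates). Uncut DNA was amplified and sequenced.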
# [2] = system: T2, Rep nickase domain of banana bunchy top virus
# T2 sequence (Rep 1-94, printed without the tag): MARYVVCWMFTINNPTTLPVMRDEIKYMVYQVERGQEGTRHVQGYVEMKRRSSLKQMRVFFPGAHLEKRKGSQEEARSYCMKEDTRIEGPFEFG
# Experimental: as §1
# [3] = system: T3, Rep nickase domain of cabbage leaf curl virus
# T3 sequence (Rep 1-116, printed without the tag): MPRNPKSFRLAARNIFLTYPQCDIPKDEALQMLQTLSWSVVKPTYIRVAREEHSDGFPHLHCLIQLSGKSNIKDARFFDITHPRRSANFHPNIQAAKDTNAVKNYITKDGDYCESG
# Experimental: as §1
# [4] = system: T4, Rep nickase domain of chickpea chlorotic dwarf virus
# T4 sequence (Rep 1-124, printed without the tag): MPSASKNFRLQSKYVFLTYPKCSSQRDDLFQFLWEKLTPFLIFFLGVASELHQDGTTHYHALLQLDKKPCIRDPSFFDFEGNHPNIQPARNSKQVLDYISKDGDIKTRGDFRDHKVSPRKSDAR
# Experimental: as §1
# [5] = system: T5, Rep nickase domain of faba bean necrotic yellows virus
# T5 sequence (Rep 1-98, printed without the tag): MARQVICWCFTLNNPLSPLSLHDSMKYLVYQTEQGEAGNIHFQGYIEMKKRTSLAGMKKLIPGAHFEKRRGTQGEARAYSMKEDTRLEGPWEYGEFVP
# Experimental: as §1
# [6] = system: T6, Rep nickase domain of maize striate mosaic virus
# T6 sequence (Rep 1-117, printed without the tag): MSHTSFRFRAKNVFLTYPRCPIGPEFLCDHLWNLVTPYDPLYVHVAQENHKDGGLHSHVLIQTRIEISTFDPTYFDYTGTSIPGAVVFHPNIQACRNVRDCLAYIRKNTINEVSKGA
# Experimental: as §1
# [7] = system: T7, Rep nickase domain of porcine circovirus 2
# T7 sequence (Rep 2-116, printed without the tag): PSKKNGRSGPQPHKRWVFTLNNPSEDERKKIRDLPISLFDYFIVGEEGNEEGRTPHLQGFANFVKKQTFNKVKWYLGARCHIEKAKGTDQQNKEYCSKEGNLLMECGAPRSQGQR
# Experimental: as §1
# [8] = system: T8, Rep nickase domain of tomato yellow leaf curl virus
# T8 sequence (Rep 1-136, printed without the tag): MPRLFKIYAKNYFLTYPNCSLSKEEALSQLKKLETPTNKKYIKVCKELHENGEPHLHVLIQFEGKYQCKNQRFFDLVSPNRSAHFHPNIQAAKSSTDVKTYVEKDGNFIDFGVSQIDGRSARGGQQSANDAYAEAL
# Experimental: as §1
# [9] = system: T9, Rep nickase domain of wheat dwarf virus
# T9 sequence (Rep 1-137, printed without the tag): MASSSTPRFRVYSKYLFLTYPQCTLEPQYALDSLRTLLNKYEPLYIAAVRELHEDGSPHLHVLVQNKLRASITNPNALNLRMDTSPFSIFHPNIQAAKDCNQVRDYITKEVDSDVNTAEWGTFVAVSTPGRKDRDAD
# Experimental: as §1
Sequence,uncleaved DNA left (log2) [1],uncleaved DNA left (log2) [2],uncleaved DNA left (log2) [3],uncleaved DNA left (log2) [4],uncleaved DNA left (log2) [5],uncleaved DNA left (log2) [6],uncleaved DNA left (log2) [7],uncleaved DNA left (log2) [8],uncleaved DNA left (log2) [9]
GATTTAG,0.0518,0.0207,-0.649,-0.581,0.0175,-0.98,0.116,0.0174,-0.0261
CGAACAA,0.143,0.0805,0.118,0.1,0.0926,-0.038,0.0722,0.0619,0.16
TTTTTGT,-1.39,-0.101,-0.0645,-0.774,-0.0416,-1.01,-0.73,-0.102,-0.0813
TGGTGAA,0.0511,-0.0118,0.329,0.65,0.0735,1.23,0.045,-0.0393,0.0455
CGCGGTG,-0.0496,-0.0134,-0.281,-0.0731,-0.101,-0.0959,0.112,-0.00464,-0.0625
AGATTAT,-0.475,0.108,0.317,-0.165,0.216,0.0328,-1.54,-0.00927,0.191
AACAGCC,0.0502,0.000625,-0.264,-0.632,0.0679,-1.01,0.076,-0.082,-0.0152
AACCACA,-0.14,0.0247,-0.109,-2.33,-0.0184,-0.635,-0.268,-0.0542,-0.057
GAGGCGC,-0.00285,0.000376,-0.215,-0.0392,0.0101,-0.301,0.133,0.0125,-0.00085
TCACAGA,0.0167,-0.122,-0.0667,-0.522,-0.0711,-0.76,0.13,0.00913,0.0156
GATAGGC,0.0451,0.0199,0.334,0.82,0.0255,0.315,0.189,0.00161,-0.0192
AGTTCGC,-0.0474,-0.0109,-0.557,-0.677,-0.0394,-1.14,-0.0549,0.0173,-0.129
AGATATC,-0.0115,0.0466,0.435,0.743,0.107,0.233,0.134,0.0708,0.0617
TGATACT,-3.99,-0.155,-1.91,-2.96,-0.0505,-0.872,-3.89,0.0293,-1.77
GATATGT,0.0694,0.00508,0.269,0.384,0.0488,0.567,-0.0466,0.175,0.106
AAGGCGG,0.0853,0.0723,0.107,0.431,0.0229,0.126,0.206,-0.0579,-0.00118
CCTAAGA,-0.137,-0.0506,-0.227,-0.236,-0.0822,-1.13,0.083,-0.0519,-0.18
CGGTCGA,-0.0329,0.0528,-0.244,-0.275,0.0179,-0.535,0.0569,0.0768,-0.00757
CTTTTTG,0.012,0.00684,-0.632,-0.471,0.095,-1.22,0.0872,0.0864,-0.0555
CGATACG,-0.0975,0.0616,-0.697,-0.531,-0.0361,-1.04,-0.0185,-0.075,-0.0139

Sequence,uncleaved DNA left (log2) [1],uncleaved DNA left (log2) [2],uncleaved DNA left (log2) [3],uncleaved DNA left (log2) [4],uncleaved DNA left (log2) [5],uncleaved DNA left (log2) [6],uncleaved DNA left (log2) [7],uncleaved DNA left (log2) [8],uncleaved DNA left (log2) [9]
GCACTTC,-0.124,0.054,0.0494,0.158,-0.103,-0.275,-0.0583,-0.0545,-0.0268
CGGATTG,-0.00477,-0.0739,0.0249,0.55,0.14,1.09,0.194,-0.0085,0.0354
GTCACTT,0.0454,0.0483,0.197,0.528,-0.0721,1.52,-0.0338,-0.0249,0.0102
ATACCGG,0.0253,-0.0163,0.358,1.1,0.00376,1.03,0.157,-0.0564,0.0432
GGGTAGA,-0.0085,0.12,0.832,1.96,0.0388,2.21,0.261,0.152,0.156
TCATAAG,0.021,0.0279,-0.69,-0.116,0.109,-1.04,0.213,0.0472,-0.0735
AGCAGGC,-0.0672,0.0206,-0.0181,0.0904,-0.00565,-0.566,0.117,-0.09,-0.149
ACAACTT,-0.00717,-0.131,-0.207,-2.56,0.0462,-0.598,-0.35,-0.0931,-0.0539
AACACCC,-0.133,-0.111,0.0131,-0.704,-0.162,-0.165,-0.287,-0.144,-0.0174
GAACACC,-0.0912,-0.00551,0.185,0.196,-0.0427,0.874,-0.0403,-0.0468,0.0319
ACTCTTT,0.169,-0.12,-0.307,-2.39,0.0713,-0.729,-1.02,-0.159,-0.0284
TTCATGC,0.0141,-0.0522,-0.601,-0.504,-0.00751,-1.31,0.109,0.079,-0.0862
ACCTACG,-0.122,-0.0431,-0.727,0.356,0.0692,-0.44,0.154,-0.0885,0.0353
GCAACGA,0.0639,-0.0335,-0.0275,0.0178,0.0146,-0.583,0.108,0.0159,0.0126
CTTGAAA,0.0122,-0.118,0.0236,-0.146,-0.142,-0.695,0.0297,-0.122,-0.0244
CTCGAAT,0.0458,-0.0565,0.0458,-0.451,-0.131,-0.591,-1.23,-0.135,-0.0141
TGGAATA,-0.00796,0.117,0.362,0.47,0.0617,1.22,0.00586,0.081,0.221
AAGTCGA,0.0241,-0.0469,-0.508,-0.888,0.0306,-1.05,-1.27,-0.106,-0.0119
AGATGGG,0.0842,0.108,-0.481,-0.597,0.0286,-0.902,0.24,0.0586,-0.159
CTAGAAT,0.0294,-0.0811,0.0801,-0.00996,-0.161,0.373,-0.298,-0.0416,-0.117

Sequence,uncleaved DNA left (log2) [1],uncleaved DNA left (log2) [2],uncleaved DNA left (log2) [3],uncleaved DNA left (log2) [4],uncleaved DNA left (log2) [5],uncleaved DNA left (log2) [6],uncleaved DNA left (log2) [7],uncleaved DNA left (log2) [8],uncleaved DNA left (log2) [9]
CGTCTGG,-0.101,-0.0917,-0.18,0.355,-0.24,0.338,0.0351,-0.186,-0.161
ACCCATA,0.149,0.00188,-0.121,-1.18,0.188,-0.553,-0.0283,0.0389,0.103
TTTTACA,-0.2,0.0124,-0.135,-2.24,0.097,0.286,-1.55,0.0362,-0.207
TCACGAT,-0.0875,-0.0225,-0.0331,-0.585,-0.102,0.37,-0.127,-0.161,-0.0308
ACCTCGC,-0.165,-0.178,-0.791,-0.713,-0.177,-1.28,-0.0877,-0.259,-0.187
ATCGCCC,-0.0475,0.0445,-0.117,-0.126,0.104,-0.33,-0.0701,0.012,-0.0703
GGCACGT,0.0965,0.0599,0.667,1.57,0.0299,1.94,0.198,0.0786,0.121
GTATTTT,-0.532,-0.0358,0.169,0.708,-0.164,1.76,-0.52,0.101,0.0248
CTATCAT,-0.0629,0.26,0.234,-0.327,0.0676,-0.189,-0.326,0.212,0.278
ACATAGT,-1.3,-0.061,-0.668,-1.28,-0.0545,-1.22,-3.05,-0.0343,-0.171
AATCAAA,-0.0077,0.102,0.0122,-0.0738,0.0164,-0.524,-0.0179,0.0707,0.0624
ATTCGGT,0.0572,-0.0829,0.21,0.652,-0.0586,0.644,-0.0425,-0.0243,0.0354
GTACTAG,0.0919,0.0329,-0.173,-0.24,0.049,-0.6,0.0905,0.105,0.0678
ATAATCG,-0.0381,-0.0292,-0.796,0.064,-0.00264,-1.11,0.0686,-0.1,-0.0652
AATTCGA,0.0948,-0.0377,-0.69,-0.818,0.00422,-1.15,0.0852,0.003,-0.0659
GTGGCCC,-0.00388,0.026,0.296,0.932,-0.127,1.75,-0.12,0.0405,0.0356
GGCGTCT,-0.0174,0.0478,0.286,0.937,0.0821,1.76,0.134,0.0825,0.174
CTGTAAG,0.0979,0.0564,-0.659,-0.195,0.171,-1.15,0.31,0.165,-0.00852
TCACTGT,0.019,-0.168,0.0324,-0.0786,-0.0586,0.601,-0.0248,-0.0778,-0.0324
GGGAACG,0.0565,0.0799,0.802,1.86,0.0385,1.96,0.206,0.0237,0.127
